# The supplement of paper PMC8728848
# The list shows a part of the results.
# B1: Regenerating Gene I (Homo sapiens), P05451 (protein)
# chain: MAQTSSYFMLISCLMFLSQSQGQEAQTELPQARISCPEGTNAYRSYCYYFNEDRETWVDADLYCQNMNSGNLVSVLTQAEGAFVASLIKESGTDDFNVWIGLHDPKKNRRWHWSSGSLVSYKSWGIGAPSSVNPGYCVSLTSSTGFQKWKDVPCEDKFSFVCKFKN
# Tests used:
# Assay in all cases: glycan array binding signal (z-score within array); higher = stronger binding
# Conditions in all cases: glycan notation: IUPAC condensed, linker removed
# [1] = biological target: Fuc(a1-2)Gal
# Method in brief: (§1)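 The binding signal is a Z-score computed within each array. Data were drawn from 3228 arrays in the Consortium for Functional Glycomics database, restricted to those with a known protein sequence. Scores were averaged over arrays of the same protein sequence at different concentrations or buffers, and over linkers, and negative values can be taken as non-binding.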
# [2] = biological target: Fuc(a1-2)Gal(b1-3)GalNAc
# Method in brief: as §1
# [3] = biological target: Fuc(a1-2)Gal(b1-3)GalNAc(b1-3)Gal
# Method in brief: as §1
# [4] = biological target: Fuc(a1-2)Gal(b1-3)GalNAc(b1-3)Gal(a1-4)Gal(b1-4)Glc
# Method in brief: as §1
# [5] = biological target: Fuc(a1-2)Gal(b1-3)GalNAc(b1-4)[Neu5Ac(a2-3)]Gal(b1-4)Glc
# Method in brief: as §1
# [6] = biological target: Fuc(a1-2)Gal(b1-3)GlcNAc
# Method in brief: as §1
# [7] = biological target: Fuc(a1-2)Gal(b1-3)GlcNAc(b1-3)Gal(b1-4)Glc
# Method in brief: as §1
# [8] = biological target: Fuc(a1-2)Gal(b1-3)[Fuc(a1-4)]GlcNAc
# Method in brief: as §1
# [9] = biological target: Fuc(a1-2)Gal(b1-4)Glc
# Method in brief: as §1
# [10] = biological target: Fuc(a1-2)Gal(b1-4)Glc6S
# Method in brief: as §1
# [11] = biological target: Fuc(a1-2)Gal(b1-4)GlcNAc
# Method in brief: as §1
# [12] = biological target: Fuc(a1-2)Gal(b1-4)GlcNAc(b1-3)Gal(b1-4)GlcNAc
# Method in brief: as §1
# [13] = biological target: Fuc(a1-2)Gal(b1-4)GlcNAc(b1-3)Gal(b1-4)GlcNAc(b1-3)Gal(b1-4)GlcNAc
# Method in brief: as §1
# [14] = biological target: Fuc(a1-2)Gal(b1-4)GlcNAc6S
# Method in brief: as §1
# [15] = biological target: Fuc(a1-2)Gal(b1-4)[Fuc(a1-3)]GlcNAc
# Method in brief: as §1
# [16] = biological target: Fuc(a1-2)Gal(b1-4)[Fuc(a1-3)]GlcNAc(b1-3)Gal(b1-4)[Fuc(a1-3)]GlcNAc
# Method in brief: as §1
# [17] = biological target: Fuc(a1-2)Gal(b1-4)[Fuc(a1-3)]GlcNAc(b1-3)Gal(b1-4)[Fuc(a1-3)]GlcNAc(b1-3)Gal(b1-4)[Fuc(a1-3)]GlcNAc
# Method in brief: as §1
# [18] = biological target: Fuc(a1-2)Gal6S(b1-4)Glc
# Method in brief: as §1
# [19] = biological target: Fuc(a1-2)Gal6S(b1-4)Glc6S
# Method in brief: as §1
# [20] = biological target: Fuc(a1-2)Gal6S(b1-4)GlcNAc
# Method in brief: as §1
# [21] = biological target: Fuc(a1-2)[Gal(a1-3)]Gal
# Method in brief: as §1
# [22] = biological target: Fuc(a1-2)[Gal(a1-3)]Gal(b1-3)GlcNAc
# Method in brief: as §1
# [23] = biological target: Fuc(a1-2)[Gal(a1-3)]Gal(b1-4)Glc
# Method in brief: as §1
# [24] = biological target: Fuc(a1-2)[Gal(a1-3)]Gal(b1-4)GlcNAc
# Method in brief: as §1
# [25] = biological target: Fuc(a1-2)[Gal(a1-3)]Gal(b1-4)[Fuc(a1-3)]GlcNAc
# Method in brief: as §1
# [26] = biological target: Fuc(a1-2)[Gal(a1-4)]Gal(b1-4)GlcNAc
# Method in brief: as §1
# [27] = biological target: Fuc(a1-2)[GalNAc(a1-3)]Gal
# Method in brief: as §1
# [28] = biological target: Fuc(a1-2)[GalNAc(a1-3)]Gal(b1-3)GlcNAc
# Method in brief: as §1
# [29] = biological target: Fuc(a1-2)[GalNAc(a1-3)]Gal(b1-4)Glc
# Method in brief: as §1
# [30] = biological target: Fuc(a1-2)[GalNAc(a1-3)]Gal(b1-4)GlcNAc
# Method in brief: as §1
binder,measurement,setting,value
B1,glycan array binding signal (z-score),[1],-0.366
same,glycan array binding signal (z-score),[2],0.019
same,glycan array binding signal (z-score),[3],-0.459
same,glycan array binding signal (z-score),[4],-0.561
same,glycan array binding signal (z-score),[5],-0.17
same,glycan array binding signal (z-score),[6],0.417
same,glycan array binding signal (z-score),[7],-0.32
same,glycan array binding signal (z-score),[8],-0.042
same,glycan array binding signal (z-score),[9],-0.035
same,glycan array binding signal (z-score),[10],-0.292
same,glycan array binding signal (z-score),[11],-0.126
same,glycan array binding signal (z-score),[12],-0.231
same,glycan array binding signal (z-score),[13],-0.076
same,glycan array binding signal (z-score),[14],-0.425
same,glycan array binding signal (z-score),[15],-0.293
same,glycan array binding signal (z-score),[16],-0.347
same,glycan array binding signal (z-score),[17],-0.093
same,glycan array binding signal (z-score),[18],0.769
same,glycan array binding signal (z-score),[19],0.768
same,glycan array binding signal (z-score),[20],-0.438
same,glycan array binding signal (z-score),[21],0.299
same,glycan array binding signal (z-score),[22],-0.238
same,glycan array binding signal (z-score),[23],-0.464
same,glycan array binding signal (z-score),[24],-0.542
same,glycan array binding signal (z-score),[25],-0.077
same,glycan array binding signal (z-score),[26],-0.144
same,glycan array binding signal (z-score),[27],0.153
same,glycan array binding signal (z-score),[28],-0.479
same,glycan array binding signal (z-score),[29],-0.443
same,glycan array binding signal (z-score),[30],0.007
